Results: publication PMC6919601, “Identification of Plasmodium dipeptidyl aminopeptidase allosteric inhibitors by high throughput screening” (PLoS ONE, 2019)
Screen size: about 110,000 compounds; about 230 (0.21%) showed an effect of 50% or more. This is one part of the list.

Target: DPAP1 (Plasmodium falciparum, UniProt Q8IIJ9)
Assay: primary screen, percent inhibition; read by cleavage of a fluorogenic dipeptide substrate; higher = more effect of the substance
Set-up: species or system P. falciparum D10 trophozoite lysates; single well
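Also: 30 min substrate incubation versus DMSO and 10 µM JCP410 controls.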

Sequence of DPAP1 (Q8IIJ9 whole entry, looked up): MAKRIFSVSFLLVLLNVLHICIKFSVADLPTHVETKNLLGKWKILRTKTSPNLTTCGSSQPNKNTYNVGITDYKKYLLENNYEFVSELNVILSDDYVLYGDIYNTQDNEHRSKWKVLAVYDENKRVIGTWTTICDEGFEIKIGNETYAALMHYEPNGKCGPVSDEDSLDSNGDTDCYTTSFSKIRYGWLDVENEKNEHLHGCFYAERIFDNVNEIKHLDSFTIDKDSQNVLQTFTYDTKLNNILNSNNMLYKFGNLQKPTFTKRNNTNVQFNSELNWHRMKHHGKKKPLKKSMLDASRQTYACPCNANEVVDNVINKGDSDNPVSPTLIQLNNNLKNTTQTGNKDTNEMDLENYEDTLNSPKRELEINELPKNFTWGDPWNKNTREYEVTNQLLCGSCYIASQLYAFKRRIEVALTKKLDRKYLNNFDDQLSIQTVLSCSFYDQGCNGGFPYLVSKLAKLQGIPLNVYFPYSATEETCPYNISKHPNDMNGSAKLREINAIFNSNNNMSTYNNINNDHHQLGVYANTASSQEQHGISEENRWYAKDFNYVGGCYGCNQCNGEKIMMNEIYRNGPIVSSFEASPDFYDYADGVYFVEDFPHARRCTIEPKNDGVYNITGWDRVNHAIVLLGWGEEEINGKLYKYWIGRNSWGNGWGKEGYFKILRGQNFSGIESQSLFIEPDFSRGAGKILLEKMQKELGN

| SMILES | % Inhibition @ 10 uM [%] |
| --- | --- |
| CC(C)(C)NS(=O)(=O)NCCc1ccncc1 | -1.91 |
| Cc1ccc(CN(Cc2ccco2)C(=O)c2cccs2)cc1 | -2.21 |
| O=c1[nH]c(=O)n(Cc2ccco2)c2c1C(C(F)(F)F)(C(F)(F)F)NC(Cc1ccccc1)=N2 | 3.87 |
| CC(C)OCCCNC(=O)C1CCCN(S(=O)(=O)N2CCOCC2)C1 (centres unmarked) | 2 |
| CCC(=O)OC1(C#N)CC(C)N(C)CC1C (centres unmarked) | -2.03 |
| CCOc1ccc2nc(C)c(CN3CC4(C)CC3CC(C)(C)C4)c(O)c2c1 (centres unmarked) | 5.37 |
| CCCCOc1ccc(/C=C/C2=CC(C)(C)NC(S)=N2)cc1OCC | -3.39 |
| CCCCCOC(=O)C1=C(C)NC(=O)NC1c1ccc(Cl)cc1 (centres unmarked) | 2.78 |
| CC(NS(=O)(=O)c1ccc2c(c1)Cc1cc(S(=O)(=O)NC(C)C(=O)O)ccc1-2)C(=O)O (centres unmarked) | 4.95 |
| COc1cccc(C2CC(O)=C/C(=N/Cc3cccs3)C2)c1 (centres unmarked) | 2.57 |
| Cc1cc(C)cc(NC(=O)CN(c2ccc(Br)cc2)S(C)(=O)=O)c1 | 0.324 |
| OCCN1CCN(Cc2c3c(c(CN4CCN(CCO)CC4)c4c2CCC4)CCC3)CC1 | -5.69 |
| O=C(CSc1cn(CCNC(=O)c2cccs2)c2ccccc12)NC1CCCCC1 | -2.4 |
| CCCO/C(O)=C1\C(C)=NC2=C(C(=O)CC(c3ccccc3OC)C2)C1c1cccc(OC)c1OC (centres unmarked) | 2.25 |
| CC(NC(=O)C1CCN(C(=O)c2cnn(-c3ccccc3)c2-n2cccc2)CC1)c1ccccc1 (centres unmarked) | -3.35 |
| Cc1ccc(C(=O)N2CCN(c3cccc(C)c3C)CC2)o1 | 2.48 |
| CCC(O)c1nc2ccccc2n1CCOc1cc(C)ccc1C (centres unmarked) | 2.05 |
| Cc1nn(CC(=O)NC(C)c2ccccc2)c(C)c1Cl (centres unmarked) | -2.79 |
| Cc1sc(-c2cc3ccc(O)cc3oc2=O)nc1-c1ccc(Cl)cc1 | -3.83 |
| CC(CNS(=O)(=O)c1ccc(-c2cc(C(F)(F)F)no2)s1)c1ccccc1 (centres unmarked) | 3.9 |
| Cc1ccc(S(=O)(=O)NC2c3cccc4cccc(c34)C2Sc2nnc(N)s2)cc1 (centres unmarked) | 3.59 |
| COc1ccc(CNC(=O)NCc2noc3ccc(C)cc23)cc1 | -2.84 |
| CCOC(=O)C1=C(C)N=c2s/c(=C\c3ccc(OC)cc3OC)c(=O)n2C1c1ccc(N(C)C)cc1 (centres unmarked) | -3.44 |
| Cc1nc2sccn2c(=O)c1S(=O)(=O)N1CC(=O)N(CCc2ccccc2)C(=O)C1 | -1.97 |
| CCCN(Cc1cc(Cl)ccc1[N+](=O)[O-])CC1CC1 | 1.08 |
| Cc1ccc(-c2nnc3n2C2(CCCC2)Cc2ccccc2-3)cc1 | -9.42 |
